Experimental data from PubChem BioAssay AID1745853 (National Center for Advancing Translational Sciences (NCATS), 2022).
The other results are listed elsewhere or left out. Further columns of the screen follow, without active or inactive calls.

Experiments:
Test in all cases: Primary Screen for Target Class Profiling of Small Molecule Inhibitors of Methyltransferases
[1] = target: Glycine N-methyltransferase (Homo sapiens) (UniProt Q14749); conditions: purified enzyme, MTase-Glo SAH luminescence; measured here: GNMT inhibition; at 40 µM; stronger effect = lower value
How it was run: (§1)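 Each enzyme was assayed with SAM and its substrate. SAH formation detected by MTase-Glo luminescence; single-point 40 uM screen[…].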

[2] = target: Guanidinoacetate N-methyltransferase (Homo sapiens) (UniProt Q14353); conditions: purified enzyme, MTase-Glo SAH luminescence; measured here: GAMT inhibition; at 40 µM; stronger effect = lower value
How it was run: as §1

[3] = target: Histamine N-methyltransferase (Homo sapiens) (UniProt P50135); conditions: purified enzyme, MTase-Glo SAH luminescence; measured here: HNMT inhibition; at 40 µM; stronger effect = lower value
How it was run: as §1

[4] = target: Nicotinamide N-methyltransferase (Homo sapiens) (UniProt P40261); conditions: purified enzyme, MTase-Glo SAH luminescence; measured here: NNMT inhibition; at 40 µM; stronger effect = lower value
How it was run: as §1

[5] = target: Phenylethanolamine N-methyltransferase (Homo sapiens) (UniProt P11086); conditions: purified enzyme, MTase-Glo SAH luminescence; measured here: PNMT inhibition; at 40 µM; stronger effect = lower value
How it was run: as §1
% is set by controls: 0 for no effect and ±100 for the full control effect.

SMILES | activity change, negative = inhibition [1] [%] | activity change, negative = inhibition [2] [%] | activity change, negative = inhibition [3] [%] | activity change, negative = inhibition [4] [%] | activity change, negative = inhibition [5] [%]
CCCN1C(=O)c2cc(C(=O)NCCCOC(C)C)nn2CC1(C)C(=O)NC1CCCC1 (stereo not drawn) | 1.84 | -0.108 | 0.195 | -4.21 | -0.09
CCN(CC)CCNC(=O)c1c(C)[nH]c(/C=C2\C(=O)Nc3ccc(Cl)cc32)c1C |  | -11.1 |  | -25.6 | -28.5
COc1cc(C(CO)CO[C@@H]2O[C@H](CO)[C@@H](O)[C@H](O)[C@H]2O)ccc1O (stereo partly drawn) | 3.98 | 2.11 | 9.71 | -10.9 | -6.41
CCCn1c(=O)c2ccc(C(=O)NC(C)CC)cc2n2c(=O)n(Cc3ccc(Cl)cc3)nc12 (stereo not drawn) | -1.85 | 0 | 2.12 | -5.39 | 1.96
Cc1noc2c(NCCN3CCOCC3)cc(-c3ccsc3)nc12 | -7.96 | -5.97 | -9.92 | -24 | -13.8
COCC1(CNC(=O)c2cnccn2)C[C@@H](O)[C@@H](O)C1 (stereo partly drawn) | -5.33 | -6.97 | -4 | -5.84 | -5.89
COc1nc2c(cc1CNC(=O)c1cccnc1C)C(=O)N(C1CCCC1)C2 | -5.98 | -6.48 | -4.54 | -8.58 | -3.85
CCCCN1C(=O)c2cc(C(=O)Nc3ccc(Cl)cc3)nn2CC1(C)C(=O)NC1CCCC1 (stereo not drawn) | 3.41 | 4.94 | -10.9 | 1.41 | 4.59
Clc1ccc(-c2nnn3c2nc(NCc2ccc4c(c2)OCO4)c2ccccc23)cc1 | 3.71 | 0.684 | 6.26 | 8.18 | -0.602
CC(C)CCN1C[C@@H]2C[C@H]1C(=O)N(Cc1cccnc1)c1ccccc1O2 | -16.6 | -10.2 | -11 | -29.9 | -15.8
CC(C)n1nc(CNC(=O)Cc2ccc(F)cc2)c2ccccc21 | 13.3 | 3.8 | 10 | 7 | 9.34
Cn1c(=O)c2nc(/C=C/c3cccc(Cl)c3)n(C)c2n(C)c1=O | -3.72 | -2.14 | 9.16 | -20.1 | 2.5
C=C1[C@@H]2CC[C@@]3(C)[C@H](c4ccoc4)OC(=O)C[C@]13O[C@H]1CC(=O)C(C)(C)[C@H](CC(=O)OC)[C@]12C | 1.75 | 1.18 | 5.33 | -10.9 | 1.78
CNCCC(Oc1ccccc1C)c1ccccc1 (stereo not drawn) | 9.78 | 8.26 | 14.3 | -8.04 | -2.97
Cc1ccccc1CNC(=O)c1ncn2c1C(=O)N(C1CC1)C(C)(C(=O)NCc1ccc(F)cc1)C2 (stereo not drawn) | 5.28 | 5.4 | 7.62 | 7.63 | 10.5
COCCN1C(=O)c2ccccc2C(C(=O)Nc2nnc(C)s2)C12CCCCC2 (stereo not drawn) | 0.735 | 0.973 | 1.06 | 3.91 | 2.01
C[S+](=O)([O-])N1Cc2ccccc2OC2(CCN(C(=O)c3cccc4[nH]ccc34)CC2)C1 | -12.6 | -7.04 | -3.48 | -10.1 | -6.19
CCOC(=O)c1cc2n(n1)CC(C)(C(=O)NC1CCC(C)CC1)N(c1ccc(C)c(Cl)c1)C2=O (stereo not drawn) | 2.32 | 6.04 | 6.53 | -4.53 | 2.33
COc1cccc(Nc2ncc3c(n2)C(C)(C(=O)N2CCN(c4ccccn4)CC2)CC3)c1 (stereo not drawn) | -4.02 | -1.11 | -0.852 | -12.2 | -4.62
COc1ccccc1-c1nc(SCC(=O)Nc2ccc(C)c(C)c2)n[nH]1 |  | 1.42 |  | -28.2 | -4.8
Cn1ncc(N2CCCC(C(=O)NCCCc3ccccc3)C2)cc1=O (stereo not drawn) | -4.29 | -5.43 | -5.85 | -13.4 | -11.3
Cc1ccc(C(=O)N2CCC3(CC2)CC(N2CCN(CC(C)C)CC2)CCO3)cn1 (stereo not drawn) | -3.32 | -5.1 | -1.31 | -5.56 | -18.9
CC(C)C1c2cccn2CCN1C(=O)Nc1ccccc1 (stereo not drawn) | 15.6 | 0 | 8.16 | 5.71 | 7.25
O=C(CCn1ccc2cc(S(=O)(=O)N3CCCC3)ccc21)NCc1ccccc1Cl | -5.88 | -0.979 | 0.603 | -7.56 | -4.17
O=S(=O)(c1ccccc1)N1CCC(CCOc2ccccc2)C1 (stereo not drawn) | 1.27 | -1.22 | 0.731 | 0.4 | -7.35
O=C(Nc1ccc(F)cc1)c1ccnc2[nH]ccc12 | -6.42 | 0.731 | -3.27 | -10.2 | -5.5
NC(=O)c1cccc2cn(-c3ccc(C4CCCNC4)cc3)nc12 (stereo not drawn) | -5.52 |  | -65.7 |  | 
Cc1ccc(Cn2c(=O)c3ccccc3n3c(SCC(=O)NC(C)C)nnc23)cc1 | -0.93 | 0 | 6.39 | 2.46 | 3.51
CC(C)OCCCn1c(=O)c2ccccc2n2c(CCC(=O)Nc3ccccc3)nnc12 | -8.27 | 5.08 | 1.68 | 2.43 | -7.36
O=C(Cn1ccc2cc(S(=O)(=O)N3CCCC3)ccc21)NCc1ccccc1Cl | 6.66 | 4.08 | 2.74 | -0.539 | -0.799
